From PubChem BioAssay AID1159614 (National Center for Advancing Translational Sciences (NCATS), 2016)
The whole screen tested about 45,000 compounds, of which about 65 (0.1%) were called active. The call rests on the fitted dose curve; in most records, active means well fitted activation curve with a large enough effect; inconclusive means small, poorly fitted or top-dose-only effect; inactive means no such curve, though single readings can be large or run the other way. Some of the results follow.

Target: Galactocerebrosidase (Homo sapiens) (UniProt P54803)
Assay: A Novel Cell-Based Assay to Identify Small Molecules for B -Galactocerebrosidase; further: 0% is about no effect; nearly all actives have a fitted effect of over 65% in size
Conditions: 145M-Twi-hGALC-G270D cells, HMU-beta-Gal fluorescence, 48 h; series mostly up to 57.5 µM; activation: at the top concentration
In short: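 qHTS, 1536-well; 145M-Twi-hGALC-G270D cells (WT line also made) in DMEM/F12 + 10% FBS; compound incubation on live cells; HMU-β-gal 0.1 mM final, pH 5.2, NaTC; carbonate stop; fluorescence increase = enhanced residual activity.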

Sequence of UniProt P54803 (P54803 whole entry, looked up): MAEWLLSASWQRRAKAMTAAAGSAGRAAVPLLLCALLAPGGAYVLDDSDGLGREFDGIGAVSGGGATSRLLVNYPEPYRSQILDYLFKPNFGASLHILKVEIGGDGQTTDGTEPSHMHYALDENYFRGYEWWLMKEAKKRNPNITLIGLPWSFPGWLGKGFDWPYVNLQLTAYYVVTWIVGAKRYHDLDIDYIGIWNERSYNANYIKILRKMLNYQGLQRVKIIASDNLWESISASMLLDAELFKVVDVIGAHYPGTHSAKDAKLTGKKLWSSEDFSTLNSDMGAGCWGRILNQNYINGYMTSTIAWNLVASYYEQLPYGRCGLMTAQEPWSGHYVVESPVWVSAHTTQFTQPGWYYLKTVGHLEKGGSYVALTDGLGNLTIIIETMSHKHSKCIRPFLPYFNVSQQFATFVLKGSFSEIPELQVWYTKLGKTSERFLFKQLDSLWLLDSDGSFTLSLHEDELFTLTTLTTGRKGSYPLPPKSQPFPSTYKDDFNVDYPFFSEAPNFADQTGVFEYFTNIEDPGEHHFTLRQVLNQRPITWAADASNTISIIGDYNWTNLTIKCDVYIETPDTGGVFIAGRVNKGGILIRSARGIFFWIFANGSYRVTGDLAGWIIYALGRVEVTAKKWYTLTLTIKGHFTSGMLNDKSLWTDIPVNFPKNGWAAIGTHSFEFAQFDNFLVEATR

activation, inactive:
CC(C)CC(=O)Nc1ccc2nc(SCC(=O)N3CCCC3)sc2c1 -16.6%
CCCNC(=O)CSc1nc2ccccc2nc1Cc1ccc(Cl)cc1 -11.5%
Cc1ccc(OCC(=O)NCC(c2ccc(Cl)cc2)N2CCCCC2)cc1 (stereo unspecified) -7.96%
Cc1ccc(C)c(CN2C(=O)c3ccccc3S(=O)(=O)c3ccc(C(=O)N4CCc5ccccc54)cc32)c1 -3.9%
CCN(c1ccc(C)cc1)S(=O)(=O)c1nnc(NC(=O)C2CCCCC2)s1 -19.6%
Cc1cccc(NC(=O)c2cc(S(=O)(=O)NCc3ccc4c(c3)OCO4)ccc2F)c1C -15.4%
CN(C)CCCN1c2ccccc2Sc2ccc(C(F)(F)F)cc21 -14%
CCOC(=O)Cn1c(=O)n(CC2CCCO2)c2nc(-c3ccccc3F)nc(C(N)=O)c21 (stereo unspecified) -11.2%
Cc1ccc(Cn2cc(C(=O)c3ccc(F)cc3)c(=O)c3cc4c(cc32)OCO4)cc1 -8.74%
COc1ccc(CNS(=O)(=O)c2cc3c(cc2C)N(C)CCO3)cc1 -3.65%
CCOC(=O)c1ccc(OCC2c3cc(OC)c(OC)cc3CCN2C(=O)c2ccc(S(=O)(=O)N3CCCC3)cc2)cc1 (stereo unspecified) -25.4%
COc1ccc(-n2c(C)c(C(C)=O)c3cc(OC(=O)c4ccc(C)cc4)ccc32)cc1 -9.03%
CCn1c(CNC(=O)c2ccc(OC)cc2)nnc1SCC(=O)Nc1ccccc1 -22.2%
COC(=O)c1ccc(NC(=O)CCc2c(C)nc3c(-c4ccccc4)c(C)nn3c2C)cc1 -32.2%
Cc1ccc(CCNC(=O)c2cn(C)c3ccc(S(=O)(=O)N(C)C4CCCCC4)cc3c2=O)cc1 -18.9%
CCC1=Nc2cc(C(=O)NCC(C)c3ccccc3)ccc2Sc2ccc(C)cc21 (stereo unspecified) -11.3%
COc1ccc(-c2nc3scc(CCNS(=O)(=O)c4ccccc4F)n3n2)cc1 1.47%
COc1ccc(-c2noc(-c3ccc(N4CCCC4)c([N+](=O)[O-])c3)n2)cc1 -31.6%
CCN1CCN(c2ncnc3c2cnn3-c2ccc(C)c(Cl)c2)CC1 -20%
COc1ccc(C)cc1S(=O)(=O)NCC(c1cccs1)S(=O)(=O)c1ccc(C)cc1 (stereo unspecified) -6.25%
CC(Oc1ccc(F)cc1)C(=O)Nc1nc(-c2ccc(F)cc2)ns1 (stereo unspecified) -42.5%
COc1ccccc1-n1c(=O)c2c3c(sc2n(C)c1=O)CN(C(C)=O)CC3 -22.7%
O=C(NCc1ccc2c(c1)CCN2C(=O)c1ccccc1)Nc1cc(F)ccc1F -26.4%
CCOC(=O)Cc1ccc(NC(=O)Nc2ccccc2OCc2cc(=O)n3ccccc3n2)cc1 -14.4%
COc1ccc(Cn2c(CNS(=O)(=O)c3ccc(C)c(C)c3)nc3cccnc32)cc1 -0.483%
CCn1nnc2cc(C(=O)Nc3cccc(Cl)c3C)ccc21 -17.1%
CCCCN(CCCC)CCNC(=O)c1cn(CC)c2ccc(S(=O)(=O)N3CCc4ccccc4C3)cc2c1=O -21.5%
CCCN(CCC)CCNC(=O)CN1C(=O)COc2ccc(S(=O)(=O)N3CCC(C)CC3)cc21 -2.3%
CCOc1ccc(/C=C/c2nc(C#N)c(N3CCCCC3)o2)cc1 -14.8%
Cc1ccc(-c2nc3ccccc3s2)cc1NC(=O)COc1ccccc1 -7.92%
Cc1ccc(OCC(=O)NCC2(N3CCOCC3)CCCCC2)cc1C 10.5%
CCC1CN(C(=O)C2CCN(S(=O)(=O)c3c(C)noc3/C=C/c3ccccc3F)CC2)c2cc(Cl)ccc2O1 (stereo unspecified) -5.26%
COc1ccc(N(Cc2cccs2)C(=O)c2ccc(Br)o2)cc1 -21.5%
O=C(CN(CCc1ccccc1)S(=O)(=O)c1ccc(Br)cc1)NCc1ccc(Cl)cc1 1.02%
CCOC(=O)Cn1nc(-c2ccccc2)c2cnc3ccc(OCC)cc3c21 4.62%
CCOC(=O)CSc1nc2c([nH]c3ccccc32)c(=O)n1-c1ccc(OC)cc1 -9.7%
Cc1oc(-c2cccc(Cl)c2)nc1CN1CCC(C(=O)NCCCN2CCN(c3ccccc3F)CC2)CC1 -23.1%
CCCOC(=O)c1ccccc1 -13.2%
CCc1ccc(NC(=O)CSC2=Nc3ccccc3C3=NC(CC(=O)NC4CCCCC4)C(=O)N23)cc1 (stereo unspecified) -11.1%
COc1ccc(NC(=O)C2CCCN(S(=O)(=O)c3ccc4c(c3)CCCC(=O)N4)C2)cc1OC (stereo unspecified) -41.1%
Cc1ccc2c(=O)cc(C(=O)Nc3ccc(S(=O)(=O)Nc4nc(C)cc(C)n4)cc3)oc2c1 -14.8%
O=C(C1CCN(c2ncnc3c2nc2n3CCCCC2)CC1)N1CCN(c2ccc(F)cc2)CC1 -10%
CCOc1cc(C2C(C(=O)Nc3ccc(OC)cc3)=C(C)Nc3nc(SC)nn32)ccc1O (stereo unspecified) -9.63%
COc1ccc(S(=O)(=O)NCC(c2ccc(N(C)C)cc2)N2CCc3ccccc32)cc1 (stereo unspecified) -6.04%
COc1ccccc1N1CCN(C(=O)CCc2nnc3n(C)c(=O)c4sccc4n23)CC1 7.02%
Cc1cccc(C(=O)Nc2ccc(C(=O)OCc3cc(=O)n4nc(C5CC5)sc4n3)cc2)c1 -26.7%
CCCC(=O)N1CC(=O)Nc2ccc(Cl)cc2C1c1ccccc1 (stereo unspecified) -18.6%
CCC(Sc1ncnc2sc3c(c12)CCCC3)C(=O)OC(C)C (stereo unspecified) -6.62%
CCc1ccc(NC(=O)Cn2c(=O)n(Cc3nc(-c4ccccc4)no3)c(=O)c3cc4c(cc32)OCO4)cc1 7.59%
COc1ccc(S(=O)(=O)N2CCC(c3ccncc3)CC2)cc1OC -6.67%
Cc1ccc(N2C(=O)NC(NS(=O)(=O)c3ccc(Cl)cc3)(C(F)(F)F)C2=O)cc1C (stereo unspecified) -14.3%
O=C(c1ccco1)n1nc(-c2ccc(Cl)cc2)nc1NCc1ccccc1 -19.4%
Cc1ccc(NC(=O)C2CCCN2S(=O)(=O)c2ccc3nc(-c4ccccc4)[nH]c3c2)cc1F (stereo unspecified) 6.23%
CCOc1ccc(OCC)c(NC(=O)C2CCN(S(=O)(=O)c3cn(C)cn3)CC2)c1 -11.8%
CSc1ccc(CCNC(=O)Cn2ncc3c(=O)oc4ccccc4c32)cc1 -14.6%
COCCNC(=O)CSc1cn(CC(=O)N2CCCCCC2)c2ccccc12 8.29%
Cc1ccn2c(Nc3ccc(F)cc3)c(-c3ccccn3)nc2c1 -6.72%
COc1ccc(OC)c(Nc2ncnc3c2cnn3-c2cccc(Cl)c2)c1 -15.4%
Cc1ccc(C)c(CSc2ccc3nnc(CCNS(=O)(=O)c4ccccc4)n3n2)c1 -12.3%
CCCCC(=O)OC1=C(C(C)=O)N(Cc2ccccc2)S(=O)(=O)c2ccccc21 -4.39%
O=C(Cn1nc(-c2ccccc2)nc(Cc2ccccc2)c1=O)Nc1ccccc1 -4.93%
CCNC(=O)c1c(NC(=O)Cc2coc3cc(C)ccc23)sc2c1CCCC2 10.9%
CCn1cc(C(=O)N2CCN(c3ccccc3)CC2)c(=O)c2cc(S(=O)(=O)N3CCCC3)ccc21 -18.4%
COc1cccc(C(=O)Nc2nc3nc(C)c(C)c(=O)n3[nH]2)c1 -3.72%
CCOc1ccc(S(=O)(=O)Nc2cccc(C)c2)c2cccnc12 13.2%
O=C(Nc1c(O)c2ccccc2oc1=O)c1cccc(F)c1 -5.67%
CCc1ccccc1NC(=O)Cc1cn(C)c2ccccc12 -18.1%
Cc1ccc(Nc2ncnc3onc(C)c23)cc1Cl -9.66%
COC(=O)c1ccccc1NC(=O)C1(c2cccs2)CCOCC1 5.03%
CCCCOC(=O)c1ccc(NC(=O)Cc2coc3c(C)c(C)ccc23)cc1 -10.6%
CCC1(c2cnc[nH]2)Cc2ccccc2C1 -15%
CCNC(=O)C1CCCN(c2nnc(C)c3c(C)n(-c4ccc(C)cc4)nc23)C1 (stereo unspecified) -13.1%
Cc1ccc(OCC(=O)N(Cc2ccco2)c2ccccn2)cc1 -14.6%
CCOC(=O)c1c(C)[nH]c(C)c1S(=O)(=O)N1CCCC(C(=O)Nc2ccc(C)c(N(C)C)c2)C1 (stereo unspecified) -1.33%
CCOC(=O)c1[nH]c(C)c(CCC(=O)NCc2cccc(C)c2)c1C -14.1%
Cc1cc(C)cc(NC(=O)c2ccc3c(O)c(S(=O)(=O)c4ccccc4)c(=O)[nH]c3c2)c1 -23.1%
Cc1c(Cl)cccc1NC(=O)CSc1ncc(S(=O)(=O)c2ccc(C(C)C)cc2)c(=O)[nH]1 -3.99%
COc1cc(Cl)c(C)cc1NC(=O)c1ccc(CN2C(=O)CCn3nc(C)cc32)cc1 15.3%
COc1ccc(CCNS(=O)(=O)c2ccc(F)c(C(=O)Nc3ccc(Cl)cc3)c2)cc1OC 8.64%
Cc1ccc(-c2nnc(Nc3ccc(Cl)c(Cl)c3)c3ccccc23)cc1S(=O)(=O)N(C)C -20.8%
Cc1ccc(C(=O)N2CCN(c3ccc(F)cc3)CC2)cc1NC(=O)c1nsc2ccccc12 -5.25%
CCC(=O)N1CCc2cc(CNC(=O)Nc3cc(C)ccc3C)ccc21 3.32%
Oc1c(C(c2ccccc2Cl)N2CCOCC2)sc2nc(-c3ccco3)nn12 (stereo unspecified) -10.8%
Cc1cccc(CNC(=O)CN2C(=O)C3CCCCN3c3ccc(C(=O)N4CCCC4)cc32)c1 (stereo unspecified) -5.76%
CC(=O)c1cccc(NC(=O)Cn2c(=O)oc3cc(S(=O)(=O)NC4CCCC4)ccc32)c1 -41.2%
CC(=O)c1ccc(Nc2nc3ccccc3nc2-n2nc(C)cc2C)cc1 -9.5%
CC(=O)N1CCN(c2nc3c(C)ccc(Cl)c3s2)CC1 -11.9%
O=C(CSCc1ccccc1Cl)NCc1ccc(Cl)c(Cl)c1 -12.3%
Cc1nc(-n2nc(C)c(Cc3ccc(Cl)cc3)c2C)sc1C(=O)N1CCCCC1C (stereo unspecified) -34.3%
COc1cccc(NC(=O)CSc2nccn2Cc2ccc3c(c2)OCO3)c1 -9.28%
Cc1ccc(C)c(Cn2c3ccccc3c3cnn(CC(=O)NCC(C)c4ccccc4)c(=O)c32)c1 (stereo unspecified) -12.3%
Cc1ccc(NC(=O)CN2C(=O)CC(c3ccc(F)cc3)=Nc3ccccc32)cc1F -26.1%
COc1ccc(CN(C(=O)Nc2cccc(OC)c2)C2CCN(C(C)=O)CC2)cc1 -4.55%
COc1ccc(OC)c(NC(=O)C(C)n2nc(C)c3c(C)n(-c4ccccc4)nc3c2=O)c1 (stereo unspecified) -2.03%
COc1cccc(CNC(=O)CN2C(=O)N(c3c(C)cccc3C)S(=O)(=O)c3ccccc32)c1OC -6.19%
COc1ccc(C2c3c(oc4ccc(Cl)cc4c3=O)C(=O)N2CCCN(C)C)cc1OC (stereo unspecified) -11.1%
